{
  "source": "the supplement of paper PMC8728848",
  "experiment_in_all_cases": "glycan array binding signal (z-score within array); higher = stronger binding",
  "conditions_in_all_cases": "glycan notation: IUPAC condensed, linker removed",
  "key": {"[1]": {"target": "Gal(b1-4)GlcNAc(b1-3)Gal(b1-3)GlcNAc", "how_it_was_run": "(§1)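 From the Consortium for Functional Glycomics database, 3228 arrays were curated, keeping only those whose protein sequence was available. Binding is given as a within-array Z-score averaged across arrays sharing a protein sequence and across linkers. Negative Z-scores can be read as non-binding.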"}, "[2]": {"target": "Gal(b1-4)GlcNAc(b1-3)Gal(b1-4)Glc", "how_it_was_run": "as §1"}, "[3]": {"target": "Gal(b1-4)GlcNAc(b1-3)Gal(b1-4)GlcNAc", "how_it_was_run": "as §1"}, "[4]": {"target": "Gal(b1-4)GlcNAc(b1-3)Gal(b1-4)GlcNAc(b1-3)Gal(b1-4)GlcNAc", "how_it_was_run": "as §1"}, "[5]": {"target": "Gal(b1-4)GlcNAc(b1-3)Gal(b1-4)[Fuc(a1-3)GlcNAc(b1-6)]Gal(b1-4)Glc", "how_it_was_run": "as §1"}, "[6]": {"target": "Gal(b1-4)GlcNAc(b1-3)Gal(b1-4)[Fuc(a1-3)]GlcNAc(b1-3)Gal(b1-4)[Fuc(a1-3)]GlcNAc", "how_it_was_run": "as §1"}, "[7]": {"target": "Gal(b1-4)GlcNAc(b1-3)GalNAc", "how_it_was_run": "as §1"}, "[8]": {"target": "Gal(b1-4)GlcNAc(b1-3)[Gal(b1-4)GlcNAc(b1-6)]Gal(b1-4)GlcNAc", "how_it_was_run": "as §1"}, "[9]": {"target": "Gal(b1-4)GlcNAc(b1-3)[Gal(b1-4)GlcNAc(b1-6)]GalNAc", "how_it_was_run": "as §1"}, "[10]": {"target": "Gal(b1-4)GlcNAc(b1-3)[GlcNAc(b1-6)]Gal(b1-4)GlcNAc", "how_it_was_run": "as §1"}, "[11]": {"target": "Gal(b1-4)GlcNAc(b1-6)Gal(b1-4)GlcNAc", "how_it_was_run": "as §1"}, "[12]": {"target": "Gal(b1-4)GlcNAc(b1-6)Gal(b1-4)GlcNAc(b1-6)GalNAc", "how_it_was_run": "as §1"}, "[13]": {"target": "Gal(b1-4)GlcNAc(b1-6)GalNAc", "how_it_was_run": "as §1"}, "[14]": {"target": "Gal(b1-4)GlcNAc(b1-6)[Gal(b1-3)]GalNAc", "how_it_was_run": "as §1"}, "[15]": {"target": "Gal(b1-4)GlcNAc(b1-6)[Gal(b1-3)]GlcNAc", "how_it_was_run": "as §1"}, "Gal(b1-6)Gal": {"target": "Gal(b1-6)Gal", "how_it_was_run": "as §1"}, "Gal3S(b1-3)GalNAc": {"target": "Gal3S(b1-3)GalNAc", "how_it_was_run": "as §1"}, "Gal3S(b1-3)GlcNAc": {"target": "Gal3S(b1-3)GlcNAc", "how_it_was_run": "as §1"}, "[16]": {"target": "Gal3S(b1-3)[Fuc(a1-4)]GlcNAc", "how_it_was_run": "as §1"}, "Gal3S(b1-4)Glc": {"target": "Gal3S(b1-4)Glc", "how_it_was_run": "as §1"}, "Gal3S(b1-4)Glc6S": {"target": "Gal3S(b1-4)Glc6S", "how_it_was_run": "as §1"}, "Gal3S(b1-4)GlcNAc": {"target": "Gal3S(b1-4)GlcNAc", "how_it_was_run": "as §1"}, "Gal3S(b1-4)GlcNAc6S": {"target": "Gal3S(b1-4)GlcNAc6S", "how_it_was_run": "as §1"}, "[17]": {"target": "Gal3S(b1-4)[Fuc(a1-3)]Glc", "how_it_was_run": "as §1"}, "[18]": {"target": "Gal3S(b1-4)[Fuc(a1-3)]Glc6S", "how_it_was_run": "as §1"}, "Gal3S4S(b1-4)GlcNAc": {"target": "Gal3S4S(b1-4)GlcNAc", "how_it_was_run": "as §1"}, "Gal3S6S(b1-4)GlcNAc": {"target": "Gal3S6S(b1-4)GlcNAc", "how_it_was_run": "as §1"}, "Gal3S6S(b1-4)GlcNAc6S": {"target": "Gal3S6S(b1-4)GlcNAc6S", "how_it_was_run": "as §1"}, "Gal4S(b1-4)GlcNAc": {"target": "Gal4S(b1-4)GlcNAc", "how_it_was_run": "as §1"}, "Gal4S6S(b1-4)GlcNAc": {"target": "Gal4S6S(b1-4)GlcNAc", "how_it_was_run": "as §1"}, "Gal6S(b1-3)GlcNAc": {"target": "Gal6S(b1-3)GlcNAc", "how_it_was_run": "as §1"}, "Gal6S(b1-3)GlcNAc6S": {"target": "Gal6S(b1-3)GlcNAc6S", "how_it_was_run": "as §1"}, "Gal6S(b1-4)Glc": {"target": "Gal6S(b1-4)Glc", "how_it_was_run": "as §1"}, "Gal6S(b1-4)Glc6S": {"target": "Gal6S(b1-4)Glc6S", "how_it_was_run": "as §1"}, "Gal6S(b1-4)GlcNAc": {"target": "Gal6S(b1-4)GlcNAc", "how_it_was_run": "as §1"}, "Gal6S(b1-4)GlcNAc6S": {"target": "Gal6S(b1-4)GlcNAc6S", "how_it_was_run": "as §1"}, "GalNAc(a1-3)Gal": {"target": "GalNAc(a1-3)Gal", "how_it_was_run": "as §1"}, "GalNAc(a1-3)GalNAc": {"target": "GalNAc(a1-3)GalNAc", "how_it_was_run": "as §1"}},
  "note": "Some of the results follow.",
  "data": [
    {"binder": "AAL (Aleuria aurantia), P18891 (protein) PTEFLYTSKIAAISWAATGGRQQRVYFQDLNGKIREAQRGGDNPWTGGSSQNVIGEAKLFSPLAAVTWKSAQGIQIRVYCVNKDNILSEFVYDGSKWITGQLGSVGVKVGSNSKLAALQWGGSESAPPNIRVYYQKSNGSGSSIHEYVWSGKWTAGASFGSTVPGTGIGATAIGPGRLRIYYQATDNKIREHCWDSNSWYVGGFSASASAGVSIAAISWGSTPNIRVYWQKGREELYEAAYGGSWNTPGQIKDASRPTPSLPDTFIAANSSGNIDISVFFQASGVSLQQWQWISGKGWSIGAVVPTGTPAGW", "values": [
      {"measurement": "glycan array binding signal (z-score)", "setting": "[1]", "result": -0.42},
      {"measurement": "glycan array binding signal (z-score)", "setting": "[2]", "result": -0.505},
      {"measurement": "glycan array binding signal (z-score)", "setting": "[3]", "result": -0.491},
      {"measurement": "glycan array binding signal (z-score)", "setting": "[4]", "result": -0.488},
      {"measurement": "glycan array binding signal (z-score)", "setting": "[5]", "result": 0.521},
      {"measurement": "glycan array binding signal (z-score)", "setting": "[6]", "result": 1.71},
      {"measurement": "glycan array binding signal (z-score)", "setting": "[7]", "result": -0.451},
      {"measurement": "glycan array binding signal (z-score)", "setting": "[8]", "result": -0.437},
      {"measurement": "glycan array binding signal (z-score)", "setting": "[9]", "result": -0.507},
      {"measurement": "glycan array binding signal (z-score)", "setting": "[10]", "result": -0.425},
      {"measurement": "glycan array binding signal (z-score)", "setting": "[11]", "result": -0.421},
      {"measurement": "glycan array binding signal (z-score)", "setting": "[12]", "result": -0.572},
      {"measurement": "glycan array binding signal (z-score)", "setting": "[13]", "result": -0.524},
      {"measurement": "glycan array binding signal (z-score)", "setting": "[14]", "result": -0.459},
      {"measurement": "glycan array binding signal (z-score)", "setting": "[15]", "result": -0.654},
      {"measurement": "glycan array binding signal (z-score)", "setting": "Gal(b1-6)Gal", "result": -0.449},
      {"measurement": "glycan array binding signal (z-score)", "setting": "Gal3S(b1-3)GalNAc", "result": -0.499},
      {"measurement": "glycan array binding signal (z-score)", "setting": "Gal3S(b1-3)GlcNAc", "result": -0.5},
      {"measurement": "glycan array binding signal (z-score)", "setting": "[16]", "result": 1.92},
      {"measurement": "glycan array binding signal (z-score)", "setting": "Gal3S(b1-4)Glc", "result": -0.493},
      {"measurement": "glycan array binding signal (z-score)", "setting": "Gal3S(b1-4)Glc6S", "result": -0.488},
      {"measurement": "glycan array binding signal (z-score)", "setting": "Gal3S(b1-4)GlcNAc", "result": -0.519},
      {"measurement": "glycan array binding signal (z-score)", "setting": "Gal3S(b1-4)GlcNAc6S", "result": -0.459},
      {"measurement": "glycan array binding signal (z-score)", "setting": "[17]", "result": 0.541},
      {"measurement": "glycan array binding signal (z-score)", "setting": "[18]", "result": 0.357},
      {"measurement": "glycan array binding signal (z-score)", "setting": "Gal3S4S(b1-4)GlcNAc", "result": -0.432},
      {"measurement": "glycan array binding signal (z-score)", "setting": "Gal3S6S(b1-4)GlcNAc", "result": -0.482},
      {"measurement": "glycan array binding signal (z-score)", "setting": "Gal3S6S(b1-4)GlcNAc6S", "result": -0.495},
      {"measurement": "glycan array binding signal (z-score)", "setting": "Gal4S(b1-4)GlcNAc", "result": -0.535},
      {"measurement": "glycan array binding signal (z-score)", "setting": "Gal4S6S(b1-4)GlcNAc", "result": -0.491},
      {"measurement": "glycan array binding signal (z-score)", "setting": "Gal6S(b1-3)GlcNAc", "result": -0.438},
      {"measurement": "glycan array binding signal (z-score)", "setting": "Gal6S(b1-3)GlcNAc6S", "result": -0.428},
      {"measurement": "glycan array binding signal (z-score)", "setting": "Gal6S(b1-4)Glc", "result": -0.528},
      {"measurement": "glycan array binding signal (z-score)", "setting": "Gal6S(b1-4)Glc6S", "result": -0.49},
      {"measurement": "glycan array binding signal (z-score)", "setting": "Gal6S(b1-4)GlcNAc", "result": -0.506},
      {"measurement": "glycan array binding signal (z-score)", "setting": "Gal6S(b1-4)GlcNAc6S", "result": -0.425},
      {"measurement": "glycan array binding signal (z-score)", "setting": "GalNAc(a1-3)Gal", "result": -0.498},
      {"measurement": "glycan array binding signal (z-score)", "setting": "GalNAc(a1-3)GalNAc", "result": -0.512}
    ]}
  ]
}
